Measurements: PubChem BioAssay AID540267 (National Center for Advancing Translational Sciences (NCATS), 2011)
“And” between values parts separate entries of the source, which are not always exact repeats. Equal entries are not always repeated. Screen size: about 340,000 compounds; about 530 (0.16%) were called active. Inconclusive means that the source gave no clear call. Such entries were picked first, then a sample of the others. Cut-off read from the data, not from the text of the source: active = activity change below about -80%; inconclusive = between about -30% and that limit; inactive = weaker than that.

Assay: Small Molecules that selectively kill Giardia lamblia: qHTS;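 note: parasites exposed to compound for two days anaerobically before the ATP read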
Conditions: Giardia lamblia trophozoite viability; at 7.66 µM; stronger effect = lower value
In short: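 Compounds were tested on trophozoites seeded at 100 cells/well and held 48 hrs at 37 deg C anaerobically. An ATP-based luminescent kit measured the remaining live cells.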
% is set by controls: 0 for no effect and ±100 for the full control effect.

Question: With `C/C(=N/NC(=O)C(O)(c1ccccc1)c1ccccc1)c1ccc([N+](=O)[O-])o1` as the compound, how does the activity change read?
Answer: active: -90.4%

Question: For `Nc1ccccc1OCCOCCOc1ccccc1N`, which activity change is on record?
Answer: inactive: -9.88%

Question: With `CCOC(=O)N1CCN(c2c(NCCCN3CCCCCC3)c(=O)c2=O)CC1` as the compound, how does the activity change read?
Answer: inconclusive: -33.8% [inhibitor]

Question: For `C(=NN1CCCCCC1)c1ccc2ccccc2n1`, which activity change is on record?
Answer: inconclusive: -64.6% [inhibitor]

Question: For `Cc1ccsc1/C=C1\CCc2ccccc2C1=O`, which activity change is on record?
Answer: inconclusive: -48.3% [inhibitor]

Question: Which activity change does the source give for `Cc1ccc(OCC(=O)N/N=C\c2cccn2C)c([N+](=O)[O-])c1` here?
Answer: inconclusive: -33.7% [inhibitor]

Question: Which activity change does the source give for `CCc1nc2ccccc2c(=O)n1/N=C/c1ccc(OC)cc1` here?
Answer: inactive: 15.8%

Question: For `CCCCN(C(=O)c1cccc(S(=O)(=O)N(CC)c2ccccc2)c1)c1c(N)n(CCCC)c(=O)[nH]c1=O`, which activity change is on record?
Answer: inactive: 5.07%

Question: Which activity change does the source give for `Nc1ncn([C@H]2C[C@H](O)[C@@H](CO)O2)c(=O)n1` here?
Answer: inconclusive: -49.2% [inhibitor]

Question: With `COc1cc2c(cc1OC)C(=O)N1[C@H]3c4ccccc4OC[C@@H]3[C@H](c3ccccc3)[C@]1(C)C(=O)N2` as the compound, how does the activity change read?
Answer: inactive: 5.61%

Question: For `CC(C)C(=O)NC(=S)Nc1sc2c(c1C(N)=O)CCCC2`, which activity change is on record?
Answer: inconclusive: -36.5% [inhibitor]

Question: For `CSc1nnc(NC(=O)c2ccco2)s1`, which activity change is on record?
Answer: inconclusive: -33.7% [inhibitor]

Question: Which activity change does the source give for `CCOc1ccc(NC(=O)c2ccccn2)cc1` here?
Answer: active: -93.3%

Question: For `COc1ccc(S(=O)(=O)NC2CC(=O)N(c3ccc(C)c(C)c3)C2)cc1` (stereo unspecified), which activity change is on record?
Answer: inconclusive: -37.6% [inhibitor]

Question: With `CC(=O)Oc1cccc(N2C(=O)c3cccc4c([N+](=O)[O-])ccc(c34)C2=O)c1` as the compound, how does the activity change read?
Answer: inactive: -5.96%

Question: Which activity change does the source give for `COC(=O)c1cc2c(n(-c3ccccc3)c1=O)CCCC2=O` here?
Answer: inconclusive: -36% [inhibitor]

Question: For `Cc1cc2ncn(C3CC(=O)N(Cc4ccc(N5CCCC5=O)cc4)C3=O)c2cc1C` (stereo unspecified), which activity change is on record?
Answer: inconclusive: -33.8% [inhibitor]

Question: For `CC(C(=O)NN=C(c1ccccc1)c1ccccc1)N1CCOCC1` (stereo unspecified), which activity change is on record?
Answer: inactive: -1.57%

Question: For `COc1ccc(-n2c(C)cc(C(=O)CN3C(=O)NC4(CCCc5sccc54)C3=O)c2C)cc1` (stereo unspecified), which activity change is on record?
Answer: inactive: -9.94%

Question: Which activity change does the source give for `CN(C)c1ccc(NC(=O)COC(=O)CNC(=O)c2cccs2)cc1` here?
Answer: inconclusive: -31.4% [inhibitor]

Question: With `Cc1ccc(C(=O)NCCCc2ccccc2)c(C)c1` as the compound, how does the activity change read?
Answer: inconclusive: -34.9% [inhibitor]

Question: For `CCc1ccc(NC(=S)Nc2cc(C(=O)O)ccc2N2CC3CC(C2)c2cccc(=O)n2C3)cc1` (stereo unspecified), which activity change is on record?
Answer: inconclusive: -38.6% [inhibitor]

Question: Which activity change does the source give for `COc1ccc(C(=O)NCC(=O)n2nc(C)cc2C)cc1OC` here?
Answer: inactive: -4.11%

Question: For `Cc1ccc(-c2nc(-c3ccccc3)no2)c(Cl)c1`, which activity change is on record?
Answer: inconclusive: -46.6% [inhibitor]

Question: Which activity change does the source give for `CCc1ccc(OCc2cnc(Cl)s2)cc1` here?
Answer: inconclusive: -35.8% [inhibitor]

Question: For `O=[N+]([O-])c1ccccc1OCC(O)CNC1CCCC1` (stereo unspecified), which activity change is on record?
Answer: inconclusive: -39.9% [inhibitor]

Question: Which activity change does the source give for `C/C(=N\Nc1nc2ccccc2[nH]1)c1ccc(N2CCOCC2)cc1` here?
Answer: inconclusive: -40.9% [inhibitor]

Question: For `O=C(CN(Cc1ccccc1Cl)C(=O)CNS(=O)(=O)c1ccc(F)cc1)NCC1CCCO1` (stereo unspecified), which activity change is on record?
Answer: inactive: 2%

Question: Which activity change does the source give for `Cc1c(Cl)cccc1NC(=O)c1ccc(OCC(=O)NCc2ccccc2)cc1` here?
Answer: inconclusive: -41% [inhibitor]

Question: For `O=C(Nc1ccc(C(F)(F)F)cc1)C1CCCCN1S(=O)(=O)c1ccccc1` (stereo unspecified), which activity change is on record?
Answer: inactive: -9.26%

Question: With `c1ccc(-c2cn3c4c(sc3n2)CCCC4)cc1` as the compound, how does the activity change read?
Answer: inconclusive: -65.6% [inhibitor] and inconclusive: -44.5% [inhibitor]

Question: For `O=C(Nc1nnc(S(=O)(=O)N2CCCCCC2)s1)c1ccccc1`, which activity change is on record?
Answer: inconclusive: -32.1% [inhibitor]

Question: Which activity change does the source give for `CNC(=S)SCCOc1ccc(C)cc1` here?
Answer: inconclusive: -32% [inhibitor]

Question: With `Cc1ccc(O)c(-c2cc(-c3ccc(F)cc3)no2)c1` as the compound, how does the activity change read?
Answer: inconclusive: -44.3% [inhibitor]

Question: Which activity change does the source give for `COc1cccc(NC(=O)CSc2cccc[n+]2[O-])c1` here?
Answer: inconclusive: -30.6% [inhibitor]

Question: With `Cc1noc(C)c1S(=O)(=O)N(CC(=O)N1CCc2ccccc21)c1ccc(C(C)C)cc1` as the compound, how does the activity change read?
Answer: inconclusive: -30.9% [inhibitor]

Question: For `CCN(C(=O)COC(=O)CNS(=O)(=O)c1ccc2ccccc2c1)C1CCCCC1`, which activity change is on record?
Answer: inconclusive: -33.4% [inhibitor]

Question: Which activity change does the source give for `Cc1nn(Cc2c(F)c(F)c(F)c(F)c2F)c(C)c1NC(=O)c1ccc(COc2ccc(Cl)cc2Cl)o1` here?
Answer: inactive: 11%

Question: Which activity change does the source give for `Cc1ccc(-c2nc3cccnc3s2)cc1NS(=O)(=O)c1cccs1` here?
Answer: inconclusive: -30.9% [inhibitor]

Question: With `Oc1ccc(CN2CCCCC2)nc1-c1ccccc1` as the compound, how does the activity change read?
Answer: inactive: 12.4%

Question: With `CCOC(=O)c1ccc(NC(=O)N2CCCCC2)cc1` as the compound, how does the activity change read?
Answer: inconclusive: -36.6% [inhibitor]

Question: Which activity change does the source give for `O=C(CCNC(=O)c1ccccc1Cl)Nc1nc(-c2ccc(F)cc2)cs1` here?
Answer: inactive: -6.62%

Question: For `COc1ccc(C2CC(c3cccc(C)c3)n3ncnc3N2)cc1` (stereo unspecified), which activity change is on record?
Answer: inconclusive: -31.2% [inhibitor]

Question: For `C=CCNC(=S)NNC(=O)COc1ccc(Br)cc1`, which activity change is on record?
Answer: inconclusive: -33.1% [inhibitor]

Question: For `COC(=O)c1ccc(NC(=S)NC2CC3CCC2C3)cc1` (stereo unspecified), which activity change is on record?
Answer: inactive: 8.71%

Question: For `Cc1ccc(S(=O)(=O)N2[C@@H](c3ccccc3F)C(C(=O)O)=CC[C@H]2c2cccc(C)c2)cc1`, which activity change is on record?
Answer: inconclusive: -57.5% [inhibitor]

Question: For `COc1cc(/C=C(\C#N)c2nc3ccccc3s2)cc([N+](=O)[O-])c1O`, which activity change is on record?
Answer: inconclusive: -36.8% [inhibitor]

Question: For `CC(C)OC(=O)c1c(NC(=O)Cn2cnc([N+](=O)[O-])n2)sc2c1CCCC2`, which activity change is on record?
Answer: inconclusive: -33.5% [inhibitor]

Question: With `O=[N+]([O-])c1cc(S(=O)(=O)Nc2cccc(Cl)c2)ccc1N/N=C/c1ccc(N2CCOCC2)cc1` as the compound, how does the activity change read?
Answer: inconclusive: -48.7% [inhibitor]

Question: For `Cc1ccc(NC(=O)c2cc(N3C(=O)C=CC3=O)ccc2N2CCOCC2)cc1Cl`, which activity change is on record?
Answer: inactive: -1.3%

Question: With `COC(=O)CSc1nc2ccc(NC(=O)c3ccccc3C(=O)N3CCOCC3)cc2s1` as the compound, how does the activity change read?
Answer: inactive: 1.83%

Question: For `CCS(=O)(=O)Nc1ccc(C2=NN(C(=O)c3ccccc3)C(c3cccs3)C2)cc1` (stereo unspecified), which activity change is on record?
Answer: inconclusive: -39.9% [inhibitor]

Question: With `O=C(Cn1c(=O)oc2cc(S(=O)(=O)N3CCCCCC3)ccc21)NC1CCCCC1` as the compound, how does the activity change read?
Answer: inconclusive: -30.5% [inhibitor]

Question: For `Cc1ccc2nc3sc(C(=O)N4CCOCC4)c(N)c3cc2c1`, which activity change is on record?
Answer: inconclusive: -44.9% [inhibitor]

Question: Which activity change does the source give for `CN(C)S(=O)(=O)c1ccc(C(=O)NNC(=O)C2COc3ccccc3O2)cc1` (stereo unspecified) here?
Answer: inconclusive: -34.7% [inhibitor]

Question: For `Nc1nonc1-n1nnc(C(=O)N/N=C/c2cc(Br)ccc2O)c1CNc1ccccc1`, which activity change is on record?
Answer: inconclusive: -36.4% [inhibitor]

Question: For `Cc1cc(C)c2c(CN3CCN(Cc4ccccc4)CC3)cc(=O)oc2c1`, which activity change is on record?
Answer: inactive: 13.4%

Question: Which activity change does the source give for `COC(=O)C1=C(CCc2ccccc2)NC(=O)NC1c1ccc(Br)cc1` (stereo unspecified) here?
Answer: inconclusive: -40% [inhibitor]

Question: For `CCC(=O)N1CCN(c2ccc(NC(=O)c3ccc([N+](=O)[O-])o3)cc2)CC1`, which activity change is on record?
Answer: inconclusive: -75.7% [inhibitor]

Question: For `COc1cccc(NC(=O)C2CCN(C(=O)[C@@H]3Cc4ccccc4CN3C(=O)OC(C)(C)C)CC2)c1`, which activity change is on record?
Answer: inconclusive: -31.2% [inhibitor]

Question: With `CCNC1(C(N)=O)CCN(Cc2ccccc2)CC1` as the compound, how does the activity change read?
Answer: inconclusive: -43.7% [inhibitor]

Question: With `COc1ccc(CCC(=O)N2CCCC(Nc3ccc(C)c(C)c3)C2)cc1OC` (stereo unspecified) as the compound, how does the activity change read?
Answer: inactive: 5.38%

Question: With `CCOc1ccc(S(=O)(=O)N2CCCCC2)cc1NC(=O)CC1OC(=O)c2ccccc21` (stereo unspecified) as the compound, how does the activity change read?
Answer: inactive: -9.38%

Question: With `COc1ccc(C(=O)Nc2ccccc2C(=O)Nc2ccc(C(=O)O)cc2)cc1` as the compound, how does the activity change read?
Answer: inconclusive: -31.9% [inhibitor]

Question: For `Cc1c(C(=O)OC(C)C(C)C[N+](C)(C)C)oc2ccccc12` (stereo unspecified), which activity change is on record?
Answer: inactive: -9.36%

Question: For `Cc1noc(C)c1NC(=O)N(C)C[C@H]1Oc2c(NC(=O)Nc3ccccc3)cccc2C(=O)N([C@H](C)CO)C[C@@H]1C`, which activity change is on record?
Answer: inconclusive: -34.2% [inhibitor]

Question: Which activity change does the source give for `O=C(NC(=S)Nc1cccc(C(F)(F)F)c1)c1csnn1` here?
Answer: inconclusive: -34.3% [inhibitor]

Question: With `CCN1C(=O)S/C(=C/c2cn(C)c3ccccc23)C1=O` as the compound, how does the activity change read?
Answer: inactive: 23.2%

Question: With `c1csc(-c2noc(CN3CCN4CCCC4C3)n2)c1` (stereo unspecified) as the compound, how does the activity change read?
Answer: inconclusive: -34.1% [inhibitor]

Question: For `O=C(N/N=C/c1ccc([N+](=O)[O-])o1)c1cc2ccccc2o1`, which activity change is on record?
Answer: active: -96.2%

Question: For `O=C(NCC1CCCN(C(=O)c2cscn2)C1)c1ccc(-c2ccccc2)cc1` (stereo unspecified), which activity change is on record?
Answer: inactive: 15.2%

Question: With `CCCCCc1ccc(-c2ccc(/C=C/C(=O)O)cc2)nc1` as the compound, how does the activity change read?
Answer: inconclusive: -38.9% [inhibitor]

Question: With `COc1ccc(C(CNC(=O)c2ccc(S(=O)(=O)N3CCCC3)cc2)N(C)C)cc1OC` (stereo unspecified) as the compound, how does the activity change read?
Answer: inconclusive: -34.2% [inhibitor]

Question: With `CC1(C)C[C@@H](O)CC2(C1)C[C@]1(C)CC(O)[C@H]2C(C)(C)C1` (stereo partly specified) as the compound, how does the activity change read?
Answer: inconclusive: -35.7% [inhibitor]

Question: With `COc1ccc(C(=O)Nc2nnc(SCC(=O)NC3CC3)s2)cc1` as the compound, how does the activity change read?
Answer: inconclusive: -42.4% [inhibitor]

Question: Which activity change does the source give for `COc1ccc(C(C)NC(=O)c2ccccc2)cc1` (stereo unspecified) here?
Answer: inconclusive: -30.5% [inhibitor]
